# According to PubChem BioAssay AID1460 (National Center for Advancing Translational Sciences (NCATS), 2008):
# In all, about 270,000 compounds went through this assay and about 5,800 (2.1%) were called active. Inconclusive results, whose numbers are uncertain, are shown with a selection of clear calls. The call rests on the fitted dose curve; in most records, active means well fitted inhibition curve with a large enough effect; inconclusive means small, poorly fitted or top-dose-only effect; inactive means flat fitted curve, though single readings scatter. Potencies of inconclusive entries are doubtful fits and often do not repeat.
# Target: Microtubule-associated protein tau (Homo sapiens) (UniProt P10636)
# Assay: qHTS for Inhibitors of Tau Fibril Formation, Thioflavin T Binding; further: nearly all actives have a fitted effect of over 55% in size
# Settings: recombinant tau K18 P301L (four-repeat tau fragment), heparin-induced fibrillization, ThT fluorescence; series mostly up to 57.4 µM; activity, negative = inhibition: at the top concentration
# Method in brief: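 Heparin-induced fibrillization of the P301L-mutant K18 repeat-domain fragment of human tau was followed by ThT binding in quantitative high-throughput format.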
# On the % scale 0 is the no-effect control and ±100 the full control effect; potency means the concentration at half of the fitted maximal effect; tags describe the fitted curve by direction and shape.
# UniProt P10636, sequence (P10636 whole entry, looked up): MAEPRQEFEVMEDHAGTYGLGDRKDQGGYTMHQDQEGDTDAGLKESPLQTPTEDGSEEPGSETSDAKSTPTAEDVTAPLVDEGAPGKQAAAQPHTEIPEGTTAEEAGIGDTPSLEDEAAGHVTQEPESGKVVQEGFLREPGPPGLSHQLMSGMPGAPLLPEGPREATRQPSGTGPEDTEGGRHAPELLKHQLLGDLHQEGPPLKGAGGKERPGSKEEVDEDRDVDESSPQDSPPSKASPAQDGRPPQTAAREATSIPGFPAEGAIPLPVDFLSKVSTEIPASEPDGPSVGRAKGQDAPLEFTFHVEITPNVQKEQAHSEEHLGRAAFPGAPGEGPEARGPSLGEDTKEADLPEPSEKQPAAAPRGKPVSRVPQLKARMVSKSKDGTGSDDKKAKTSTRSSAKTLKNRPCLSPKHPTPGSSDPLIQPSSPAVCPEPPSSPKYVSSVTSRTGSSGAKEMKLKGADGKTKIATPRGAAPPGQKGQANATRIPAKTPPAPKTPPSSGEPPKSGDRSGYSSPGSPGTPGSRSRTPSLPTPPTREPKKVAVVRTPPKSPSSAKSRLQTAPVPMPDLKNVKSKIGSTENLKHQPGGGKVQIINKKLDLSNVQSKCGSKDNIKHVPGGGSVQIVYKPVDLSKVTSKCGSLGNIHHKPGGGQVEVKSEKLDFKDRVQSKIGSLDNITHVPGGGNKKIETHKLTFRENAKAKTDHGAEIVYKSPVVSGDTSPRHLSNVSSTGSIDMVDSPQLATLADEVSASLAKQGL
SMILES,Potency,"activity, negative = inhibition"
C=CC[n+]1c(-c2ccc(Cl)cc2Cl)csc1Nc1c(C)n(C)n(-c2ccccc2)c1=O,"inconclusive: 17.8 µM [inhibitor, partial curve, poor fit]",–
CCOC(=O)c1ccc(NC(=O)COc2ccccc2CNCCO)cc1,"inconclusive: 20 µM [inhibitor, single point]",–
NS(=O)(=O)c1ccc(NC(=O)COC(=O)c2cnc(Cl)c(Cl)c2)cc1,–,inactive: -11.7%
CC1CCN(S(=O)(=O)c2cccc(C(=O)Oc3ccc([N+](=O)[O-])cc3)c2)CC1,"inconclusive: 5.62 µM [inhibitor, partial curve, poor fit]",–
COc1cccc2c(C)c(C(=O)O)[nH]c12,"inconclusive: 17.8 µM [inhibitor, partial curve]",–
COc1ccccc1CNC(=O)CCc1c(C)nn(-c2ccc(N3CCCC3)nn2)c1C,–,inactive: -6.81%
Cc1cccc(C2=NN(c3ccccc3)[C@H](CO)[C@H]2C)c1,"inconclusive: 14.1 µM [inhibitor, partial curve]",–
Cc1cc(=O)n(Cc2ccccc2Cl)c2c1c(C)nn2-c1ccccc1,–,inactive: -1.25%
COc1cc(OC)cc(C(=O)N[C@H](C(=O)Nc2nc3c(s2)CCCC3)C(C)C)c1,"inconclusive: 22.4 µM [inhibitor, single point]",–
O=[N+]([O-])c1cc(CN2CCN(c3cccc(C(F)(F)F)c3)CC2)c2cccnc2c1O,active: 15.8 µM,–
Cc1ccc2scc(N3CCN(c4cccc(C(F)(F)F)c4)CC3)c(=O)c2c1,"inconclusive: 1.78 µM [inhibitor, full curve]",–
COC(=O)CN1C(=O)C(C)(C)c2cc(S(=O)(=O)NCc3ccc(Cl)cc3)ccc21,–,inactive: -2.52%
O=C(Cc1ccc(Cl)cc1)Nc1ccc(C(=O)N2CCOCC2)cc1,–,inactive: -5.73%
O=C(NCCN1C(=O)S/C(=C\c2cccs2)C1=O)c1ccco1,"inconclusive: 20 µM [inhibitor, partial curve]",–
Cc1ccc2oc3c(c(=O)c2c1)C(c1ccc(F)cc1)N(CCCN1CCOCC1)C3=O (stereo not drawn),–,inactive: -19.9%
S=C(NCc1ccc(Cl)c(Cl)c1)Nc1ccc2c(c1)OCO2,"inconclusive: 10 µM [inhibitor, partial curve]",–
Cc1ccn2c(Nc3c(C)cccc3C)c(-c3ccc(Cl)s3)nc2c1,"inconclusive: 17.8 µM [inhibitor, partial curve, poor fit]",–
Cc1ccc2[nH]c(C(=O)NN=C3CCCCC3)c(-c3ccccc3)c2c1,"inconclusive: 12.6 µM [inhibitor, single point]",–
COc1cc(-c2nc(S(=O)(=O)c3ccc(Cl)cc3)c(N3CCOCC3)o2)cc(OC)c1OC,–,inactive: -11.1%
C/C(=N\NC(=S)Nc1cccc(C)c1)c1cc2ccccc2o1,"inconclusive: 14.1 µM [inhibitor, partial curve]",–
COCc1[nH]nc2c1C1(C(=O)Nc3ccc(F)cc31)C(C#N)=C(N)O2 (stereo not drawn),–,inactive: -0.219%
COc1ccccc1S(=O)Cc1ccc(C(=O)NC2CCCC2)o1 (stereo not drawn),"inconclusive: 35.5 µM [inhibitor, single point]",–
CC(=O)OC[C@@H]1O[C@H](C/C=N\O[C@@H](C)CN2CCCCc3nc(C)c(C)cc32)C=C[C@@H]1OC(C)=O,–,inactive: -14.7% [at 11.5 µM]

SMILES,Potency,"activity, negative = inhibition"
Cc1cccc(NC(=S)N/N=C/c2ccc([N+](=O)[O-])s2)c1,"inconclusive: 3.16 µM [inhibitor, full curve]",–
CCOC(=O)CNC(=O)CSc1nnc(SCC(=O)NCC(=O)OCC)s1,–,inactive: -0.613%
COc1cccc(NC(=O)c2sc3nc(C)c(C(=O)Nc4ccc(C)cc4C)c(-c4cccs4)c3c2N)c1,"inconclusive: 1.26 µM [inhibitor, full curve]",–
COc1cccc(-c2nc(NC(C)(C)C)c3ccccc3n2)c1O,"inconclusive: 12.6 µM [inhibitor, partial curve]",–
O=C(Nc1ccc(Br)cc1)c1ccc(Cl)c(S(=O)(=O)N2CCCCCC2)c1,–,inactive: 9.16%
CC1CCN(CCCNC(=O)c2ccc(Cn3c(=S)[nH]c4ccc(Br)cc4c3=O)cc2)CC1,"inconclusive: 35.5 µM [inhibitor, partial curve]",–
COc1ccc(S(=O)(=O)CCC(=O)N2CCN(c3ccc(F)cc3)CC2)cc1,"inconclusive: 28.2 µM [inhibitor, single point]",–
CCOc1ccc(-n2c(Cc3ccccc3)nnc2SCc2nc(-c3cccs3)no2)cc1,–,inactive: -16.5%
Cc1cc(C(=O)Nc2cccc3cccnc23)ccc1[N+](=O)[O-],"inconclusive: 5.62 µM [inhibitor, full curve]",–
Cc1ccc(O)c(-c2cc(-c3ccccc3C)[nH]n2)c1,"inconclusive: 7.08 µM [inhibitor, partial curve]",–
Cc1cc(C)nc(Nc2ccccc2Br)n1,"inconclusive: 39.8 µM [inhibitor, single point]",–
CCOC(=O)c1ccc(NC(=S)N2CCSC2c2ccc(OC)cc2)cc1 (stereo not drawn),"inconclusive: 22.4 µM [inhibitor, single point]",–
CC(=O)c1c(C)[nH]c(C(=O)CSc2nnc(-c3cccs3)n2Cc2ccccc2)c1C,–,inactive: 1.88%
CCOc1ccc(N=C2NC(=O)S/C2=C\c2ccc(Cl)cc2)cc1,"inconclusive: 0.631 µM [inhibitor, full curve]",–
O=C(O)CCC(C(=O)O)n1c(O)c(C2=c3ccccc3=NC2=O)sc1=S (stereo not drawn),"inconclusive: 28.2 µM [inhibitor, partial curve, poor fit]",–
Cc1cc(C)cc(-n2c(C)cc(/C=C3\C(=N)N4N=C(CC(C)C)SC4=NC3=O)c2C)c1,"inconclusive: 11.2 µM [inhibitor, partial curve]",–
Cc1ccc(-c2[nH]nc(N)c2N=Nc2cccc(Cl)c2C)cc1,active: 12.6 µM,–
COc1ccccc1Nc1c2c(nc3ccc(NC(=O)/C=C/c4cc(OC)c(OC)c(OC)c4)cc13)CCCC2,active: 14.1 µM,–
CC(C)(C)C1CCc2c(sc(NC(=O)CSc3ncn[nH]3)c2C#N)C1 (stereo not drawn),"inconclusive: 17.8 µM [inhibitor, partial curve]",–
CCCCCc1ccc(-c2ccc(C(=O)Oc3ccc(C(=O)OC)cc3)cc2)nc1,"inconclusive: 5.62 µM [inhibitor, partial curve]",–
COc1ccc(CNc2oc(-c3cccc4ccccc34)nc2C#N)cc1,–,inactive: -17%
N#Cc1nc(-c2ccc(OCc3ccccc3)cc2)oc1NCCN1CCOCC1,"inconclusive: 4.47 µM [inhibitor, partial curve]",–
C/C(=N\OCC(=O)N/N=C/c1ccccc1)c1cccs1,–,inactive: -14.8%

SMILES,Potency,"activity, negative = inhibition"
Cc1nc2sccn2c1-c1csc(NCc2ccccc2)n1,"inconclusive: 25.1 µM [inhibitor, partial curve]",–
CCn1c(C)nc2cc(C(=O)NNC(=S)Nc3ccc(OC)cc3)ccc21,"inconclusive: 35.5 µM [inhibitor, single point]",–
CCCN(CCC)S(=O)(=O)c1ccc(N2CCCCS2(=O)=O)cc1,–,inactive: 0.105%
COc1ccc(-c2cc(C3CCN(c4ncccc4[N+](=O)[O-])CC3)[nH]n2)cc1,active: 8.91 µM,–
O=C(CSCc1ccc(Cl)cc1)N1CCN(Cc2ccc3c(c2)OCO3)CC1,"inconclusive: 22.4 µM [inhibitor, single point]",–
CCC/C=N/NC(=O)c1cc(Br)ccc1O,"inconclusive: 2 µM [inhibitor, partial curve]",–
CCn1c2ccccc2c2nnc(N3CCN(c4ccc(OC)cc4)CC3)nc21,–,inactive: -14.5%
CN(C)S(=O)(=O)c1cc(NC(=O)CN2CCc3ccccc32)ccc1Cl,"inconclusive: 31.6 µM [inhibitor, partial curve]",–
COc1ccc(-c2cc(C(F)(F)F)nc(SCCC(=O)Nc3ccc(O)cc3)n2)cc1,–,inactive: 7.26%
O=C1/C(=C\c2ccc(Br)o2)Cc2ccccc21,"inconclusive: 25.1 µM [inhibitor, partial curve]",–
O=C(Nc1ccccc1N1CCCCC1)c1ccc2nccnc2c1,"inconclusive: 39.8 µM [inhibitor, single point]",–
Cc1nc(-c2ccc(S(=O)(=O)N(C)Cc3ccccc3)cc2)co1,–,inactive: -5.2%
Cc1cc(C)cc(N2C(=O)CS(=O)(=O)C23C(=O)N(C)c2ccccc23)c1 (stereo not drawn),–,inactive: -5.04%
COc1ccc(-c2c/c(=N\c3nc(-c4ccccc4)c(C)s3)c3ccccc3o2)cc1O,"inconclusive: 15.8 µM [inhibitor, partial curve]",–
CCOC(=O)c1c(NC(=O)CC2Nc3cc(C)c(C)cc3NC2=O)sc(C)c1C (stereo not drawn),"inconclusive: 17.8 µM [inhibitor, partial curve]",–
C=CCn1c(SCC(=O)NC2CCCC2)nc2scc(-c3ccco3)c2c1=O,active: 28.2 µM,–
CC(=O)/C(N)=N/Nc1cccc(Cl)c1,"inconclusive: 15.8 µM [inhibitor, partial curve]",–
Cc1nc([N+](=O)[O-])c(Sc2nc3ccccc3n2C)n1Cc1ccccc1,"inconclusive: 14.1 µM [inhibitor, partial curve, poor fit]",–
O=C(COC(=O)c1ccc(O)cc1)Nc1ccc(N2CCCCC2)cc1,"inconclusive: 14.1 µM [inhibitor, partial curve]",–
Cc1ccc(/C=N/NC(=O)CSc2nnc(-c3ccccc3)n2-c2ccc(Cl)cc2)o1,–,inactive: -7.56%
CCCN(C(=O)c1cc2c(=O)n(CC)c3ccccc3c2s1)c1ccccc1F,"inconclusive: 31.6 µM [inhibitor, single point]",–
CN1/C(=C\C(=O)COC(=O)CNC(=O)c2ccc3ccccc3c2)C(C)(C)c2ccccc21,"inconclusive: 14.1 µM [inhibitor, partial curve]",–
